Reference: the supplement of paper PMC7826260
The list shows a part of the results. The data describe in vitro nicking of single-stranded DNA by Rep domains (3 µM enzyme, 1 h, 37 °C); shown is the middle of each 90-letter strand. The score is log2 (uncut reads / reads without enzyme); the lower, the more was cut; hits are not called. Reads are scaled to the total; uncut strands gain when others are lost, and binding without cutting may add a little.

Test system: T1, Rep nickase domain of tomato golden mosaic virus
T1 sequence (residues 1-124, tag not shown): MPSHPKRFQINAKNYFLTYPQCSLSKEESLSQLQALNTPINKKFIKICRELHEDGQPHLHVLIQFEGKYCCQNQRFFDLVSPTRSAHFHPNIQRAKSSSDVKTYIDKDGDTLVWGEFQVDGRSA
Assay: uncleaved DNA left, log2 of reads against the no-enzyme library (log2 ratio); higher = less cleavage (more negative = more Rep cleavage of the k-mer); sequences stand for … in CTCGTCCG…ACCGGAGA
Method: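 A pool of 90-nt single-stranded DNAs with seven random bases just before the constant AC of the nick site (name = the seven bases) was cut by 3 µM recombinant His6-SUMO-tagged Rep nickase domain (300 nM DNA, 50 mM HEPES pH 8.0, 50 mM NaCl, 1 mM MnCl2, 1 h, 37 °C, three replicates). Uncut DNA was amplified and sequenced.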

Sequence | uncleaved DNA left (log2)
CGTGAGG | 0.163
TGTGTAG | -0.147
CGACACA | -0.1
GTTGCTA | 0.0178
CAACAAG | -0.0788
CTTTGGA | -0.0756
ATCCGCG | -0.187
TTCGTGT | -0.0701
TGACTCG | -0.102
GCAGGGT | 0.153
CCGTGCC | 0.108
GGGCGAG | 0.118
TAACCAT | -0.197
TAACTTT | -3.08
GTCGTAC | -0.039
GCGGGGA | -0.0303
GCACAGA | -0.0104
GAGGCGA | -0.00163
TATTCTT | -1.33
TAGCAAA | 0.0664

Sequence | uncleaved DNA left (log2)
TCGGACA | -0.0436
GAGGGCG | 0.0381
TTCGAAA | -0.065
TCATCAA | -0.0122
GGGCTTC | 0.0464
ATATGTA | 0.0746
AACGACT | -0.0215
GTTTCGC | -0.0994
CTATCCG | -0.081
TGCGTCC | -0.061
TGTGTCC | -0.172
TGGCTGC | 0.0436
GATAGCG | -0.00775
GGGTATC | -0.0402
TTACGCC | -0.05
AAACTAT | -0.00919
TGAAACG | 0.0459
CGTAGCG | -0.0361
GTTATCT | 0.137
GTGCGAG | 0.0608
